According to the supplement of paper PMC12217912:
The other results are listed elsewhere or left out. Sequences were assembled here from the parent chain. Values near 0.05 are background.

B1: TEV protease; numbered along this chain (parent)
chain: MGESLFKGPRDYNPISSSICHLTNESDGHTTSLYGIGFGPFIITNKHLFRRNNGTLVVQSLHGVFKVKDTTTLQQHLVDGRDMIIIRMPKDFPPFPQKLKFREPQREERICLVTTNFQTKSMSSMVSDTSCTFPSGDGIFWKHWIQTKDGQCGSPLVSTRDGFIVGIHSASNFTNTNNYFTSVPKNFMELLTNQEAQQWVSGWRLNADSVLWGGHKVFMVKPEEPFQPVKEATQL

Variants of: B1
Experiment: raw area under fraction-flipped curve 0-4 h after induction (AUC4h, not background-subtracted), DNA-recorder readout of cleavage of the substrate (dimensionless); higher = more cleavage of the substrate by the protease variant
Details: temperature: 34 °C; time window: 0-4 h after rhamnose induction
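Also: Bxb1 expression induced with 0.2% (w/v) L-rhamnose at OD600 near 0.5, cultures sampled hourly, flipped fraction per protease–substrate barcode pair counted by paired-end Illumina sequencing.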

Variant	area with substrate ENFYFQS	area with substrate ENHYFQS	area with substrate ENIYFQS	area with substrate ENKYFQS	area with substrate ENNYFQS	area with substrate ENPYFQS	area with substrate ENQYFQS	area with substrate ENSYFQS	area with substrate ENTYFQS	area with substrate ENEYFQS
MGESLFKGPRDYNPISSSICHLTNESDGHTTSLYGIGFGPFIITNKHLFRRNNGTLVVQSLHGVFKVKDTTTLQQHLVDGRDMIIIRMPKDFPPFPQKLKFREPQREERICLVTTNFQTKSMSSMVSDTSCTFPSGDGIFWKHWIQTKDGQCGSPLVSTRDGFIVGIHSASNFTNTNNYFTSVPKNFMELLTNQEAQQWVSGWRLNADSVLWEGHKVFMVKPEEPFQPVKEATQL [G213E]	0.0595	0.0503	0.059	0.0692	0.0542	0.0846	0.0678	0.059	0.0291	–
MGESLFKGPRDYNPISSSICHLTNESDGHTTSLYGIGFGPFIITNKHLFRRNNGTLVVQSLHGVFKVKDTTTLQQHLVDGRDMIIIRMPKDFPPFPQKLKFREPQREERICLVTTNFQTKSMSSMVSDTSCTFPSGDGIFWKHWIQTKDGQCGSPLVSTRDGFIVGIHSASNFTNTNNYFTSVPKNFMELLTNQEAQQWVSGWRLNADTVLWGGHKVFMVKPEEPFQPVKEATQL [S209T]	0.0625	–	–	–	–	0.0482	–	–	–	0.0828
MGESLFKGPRDYNPISSSICHLTNESDGHTTSLYGIGFGPFIITNKHLFRRNNGTLVVQILHGVFKVKDTTTLQQHLVDGRDMIIIRMPKDFPPFPQKLKFREPQREERICLVTTNFQTKSMSSMVSDTSCTFPSGDGIFWKHWIQTKDGQCGSPLVSTRDGFIVGIHSASNFTNTNNYFTSVPKNFMELLTNQEAQQWVSGWRLNADSVLWGGHKVFMVKPEEPFQPVKEATQL [S60I]	–	–	–	0.0533	–	0.0595	–	–	–	0.0525
MGESLFKGPRDYNPISSSICHLTNESDGHTTSLYGIGFGPFIITNKHLFRRNNGTLVVQSLHGVFKVKDTTTLQQHLVDGRDMIIIRMPKDFPPFPQKLKFREPQREERICLVTTNFQTKSMSSMVSDTSCTFPMGDGIFWKHWIQTKDGQCGSPLVSTRDGFIVGIHSASNFTNTNNYFTSVPKNFMELLTNQEAQQWVSGWRLNADSVLWGGHKVFMVKPEEPFQPVKEATQL [S135M]	0.0757	–	–	–	0.0718	0.0523	0.0847	0.0587	–	0.0503
MGESLFKGPRDYNPISSSICHLTNESDGHTTSLYGIGFGPFIITNKHLFRRNNGTLVVQSLHGVFKVKDTTTLQQHLVDGRDMIIIRMPKDFPPFPQKLKFREPQREERICLVTTNFQTKSMSSMVSDTSCTFPSGDGIFWKHWIQTKDGQCGSPLVSTRDGFIVGIHSASNFTNTNNYFTSVPRNFMELLTNQEAQQWVSGWRLNADSVLWGGHKVFMVKPEEPFQPVKEATQL [K185R]	–	0.0646	0.0881	–	0.0554	–	0.0598	–	0.0635	0.0577
MGESLFKGPRDYNPISSSICHLTNESDGHTTSLYGIGFGPFIITNKHLFRRNNGTLVVQSLHGVFKVKDTTTLQQHLVDGRDMIIIEMPKDFPPFPQKLKFREPQREERICLVTTNFQTKSMSSMVSDTSCTFPSGDGIFWKHWIQTKDGQCGSPLVSTRDGFIVGIHSASNFTNTNNYFTSVPKNFMELLTNQEAQQWVSGWRLNADSVLWGGHKVFMVKPEEPFQPVKEATQL [R87E]	–	0.0483	–	0.062	–	–	–	–	0.0488	0.0615
MGESLFKGPRDYNPISSSICHLTNESDGHTTSLYGIGFGPFIITNKHLFRRNNGTLVVQSLHGVFKVKDTTTLQQHLVDGRDMIIIRMPKDWPPFPQKLKFREPQREERICLVTTNFQTKSMSSMVSDTSCTFPSGDGIFWKHWIQTKDGQCGSPLVSTRDGFIVGIHSASNFTNTNNYFTSVPKNFMELLTNQEAQQWVSGWRLNADSVLWGGHKVFMVKPEEPFQPVKEATQL [F92W]	–	–	–	–	–	–	–	0.0499	–	0.0713
MGESLFKGPRDYNPISSSICHLTNESDGHTTSLYGIGFGPFIITNKHLFRRNNGTLVVQSLHGVFKVKDTTTLQQHLVDGRDMIIIRMPKDFPLFPQKLKFREPQREERICLVTTNFQTKSMSSMVSDTSCTFPSGDGIFWKHWIQTKDGQCGSPLVSTRDGFIVGIHSASNFTNTNNYFTSVPKNFMELLTNQEAQQWVSGWRLNADSVLWGGHKVFMVKPEEPFQPVKEATQL [P94L]	0.0686	–	0.141	–	0.0642	0.0634	0.051	–	0.0433	0.0523
MGESLFKGPRDYNPISSSICHLTNESDGHTTSLYGIGFGPFIITNKHLFRRNNGTLVVQSLHGVFKVKDTTTLQQHLVDGRDMIIIRMDKDFPPFPQKLKFREPQREERICLVTTNFQTKSMSSMVSDTSCTFPSGDGIFWKHWIQTKDGQCGSPLVSTRDGFIVGIHSASNFTNTNNYFTSVPKNFMELLTNQEAQQWVSGWRLNADSVLWGGHKVFMVKPEEPFQPVKEATQL [P89D]	–	–	–	–	0.0614	0.0561	–	0.0415	–	–

Same assay, conditions: temperature: 34 °C; time window: 0-4 h after rhamnose induction

Variant	area with substrate ENRYFQS	area with substrate ENGYFQS	area with substrate ENVYFQS	area with substrate ENYYFQS
MGESLFKGPRDYNPISSSICHLTNESDGHTTSLYGIGFGPFIITNKHLFRRNNGTLVVQSLHGVFKVKDTTTLQQHLVDGRDMIIIRMPKDFPPFPQKLKFREPQREERICLVTTNFQTKSMSSMVSDTSCTFPSGDGIFWKHWIQTKDGQCGSPLVSTRDGFIVGIHSASNFTNTNNYFTSVPKNFMELLTNQEAQQWVSGWRLNADTVLWGGHKVFMVKPEEPFQPVKEATQL [S209T]	0.0561	–	–	–
MGESLFKGPRDYNPISSSICHLTNESDGHTTSLYGIGFGPFIITNKHLFRRNNGTLVVQILHGVFKVKDTTTLQQHLVDGRDMIIIRMPKDFPPFPQKLKFREPQREERICLVTTNFQTKSMSSMVSDTSCTFPSGDGIFWKHWIQTKDGQCGSPLVSTRDGFIVGIHSASNFTNTNNYFTSVPKNFMELLTNQEAQQWVSGWRLNADSVLWGGHKVFMVKPEEPFQPVKEATQL [S60I]	–	0.0253	0.0636	–
MGESLFKGPRDYNPISSSICHLTNESDGHTTSLYGIGFGPFIITNKHLFRRNNGTLVVQSLHGVFKVKDTTTLQQHLVDGRDMIIIRMPKDFPPFPQKLKFREPQREERICLVTTNFQTKSMSSMVSDTSCTFPMGDGIFWKHWIQTKDGQCGSPLVSTRDGFIVGIHSASNFTNTNNYFTSVPKNFMELLTNQEAQQWVSGWRLNADSVLWGGHKVFMVKPEEPFQPVKEATQL [S135M]	0.0491	–	0.0524	–
MGESLFKGPRDYNPISSSICHLTNESDGHTTSLYGIGFGPFIITNKHLFRRNNGTLVVQSLHGVFKVKDTTTLQQHLVDGRDMIIIRMPKDFPPFPQKLKFREPQREERICLVTTNFQTKSMSSMVSDTSCTFPSGDGIFWKHWIQTKDGQCGSPLVSTRDGFIVGIHSASNFTNTNNYFTSVPRNFMELLTNQEAQQWVSGWRLNADSVLWGGHKVFMVKPEEPFQPVKEATQL [K185R]	–	0.0541	–	0.0463
MGESLFKGPRDYNPISSSICHLTNESDGHTTSLYGIGFGPFIITNKHLFRRNNGTLVVQSLHGVFKVKDTTTLQQHLVDGRDMIIIEMPKDFPPFPQKLKFREPQREERICLVTTNFQTKSMSSMVSDTSCTFPSGDGIFWKHWIQTKDGQCGSPLVSTRDGFIVGIHSASNFTNTNNYFTSVPKNFMELLTNQEAQQWVSGWRLNADSVLWGGHKVFMVKPEEPFQPVKEATQL [R87E]	0.0554	–	0.0813	–
MGESLFKGPRDYNPISSSICHLTNESDGHTTSLYGIGFGPFIITNKHLFRRNNGTLVVQSLHGVFKVKDTTTLQQHLVDGRDMIIIRMPKDWPPFPQKLKFREPQREERICLVTTNFQTKSMSSMVSDTSCTFPSGDGIFWKHWIQTKDGQCGSPLVSTRDGFIVGIHSASNFTNTNNYFTSVPKNFMELLTNQEAQQWVSGWRLNADSVLWGGHKVFMVKPEEPFQPVKEATQL [F92W]	–	–	0.0842	0.067
MGESLFKGPRDYNPISSSICHLTNESDGHTTSLYGIGFGPFIITNKHLFRRNNGTLVVQSLHGVFKVKDTTTLQQHLVDGRDMIIIRMDKDFPPFPQKLKFREPQREERICLVTTNFQTKSMSSMVSDTSCTFPSGDGIFWKHWIQTKDGQCGSPLVSTRDGFIVGIHSASNFTNTNNYFTSVPKNFMELLTNQEAQQWVSGWRLNADSVLWGGHKVFMVKPEEPFQPVKEATQL [P89D]	–	0.0503	0.0768	–
